Measurements: PMC4336329 (PLoS ONE, 2015)
Among all 310,000 compounds or so, about 14,000 (4.5%) showed an effect of 50% or more. The effect is printed as a negative number. This is one part of the list.

biological target: human ether-à-go-go-related gene (hERG) potassium channel (human, UniProt Q12809); test: primary screen, population patch clamp on CHO cells stably expressing hERG
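Further: peak tail current of the secondary pulse compared with the same well before compound.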

human ether-à-go-go-related gene (hERG) potassium channel, sequence (Q12809 whole entry, looked up): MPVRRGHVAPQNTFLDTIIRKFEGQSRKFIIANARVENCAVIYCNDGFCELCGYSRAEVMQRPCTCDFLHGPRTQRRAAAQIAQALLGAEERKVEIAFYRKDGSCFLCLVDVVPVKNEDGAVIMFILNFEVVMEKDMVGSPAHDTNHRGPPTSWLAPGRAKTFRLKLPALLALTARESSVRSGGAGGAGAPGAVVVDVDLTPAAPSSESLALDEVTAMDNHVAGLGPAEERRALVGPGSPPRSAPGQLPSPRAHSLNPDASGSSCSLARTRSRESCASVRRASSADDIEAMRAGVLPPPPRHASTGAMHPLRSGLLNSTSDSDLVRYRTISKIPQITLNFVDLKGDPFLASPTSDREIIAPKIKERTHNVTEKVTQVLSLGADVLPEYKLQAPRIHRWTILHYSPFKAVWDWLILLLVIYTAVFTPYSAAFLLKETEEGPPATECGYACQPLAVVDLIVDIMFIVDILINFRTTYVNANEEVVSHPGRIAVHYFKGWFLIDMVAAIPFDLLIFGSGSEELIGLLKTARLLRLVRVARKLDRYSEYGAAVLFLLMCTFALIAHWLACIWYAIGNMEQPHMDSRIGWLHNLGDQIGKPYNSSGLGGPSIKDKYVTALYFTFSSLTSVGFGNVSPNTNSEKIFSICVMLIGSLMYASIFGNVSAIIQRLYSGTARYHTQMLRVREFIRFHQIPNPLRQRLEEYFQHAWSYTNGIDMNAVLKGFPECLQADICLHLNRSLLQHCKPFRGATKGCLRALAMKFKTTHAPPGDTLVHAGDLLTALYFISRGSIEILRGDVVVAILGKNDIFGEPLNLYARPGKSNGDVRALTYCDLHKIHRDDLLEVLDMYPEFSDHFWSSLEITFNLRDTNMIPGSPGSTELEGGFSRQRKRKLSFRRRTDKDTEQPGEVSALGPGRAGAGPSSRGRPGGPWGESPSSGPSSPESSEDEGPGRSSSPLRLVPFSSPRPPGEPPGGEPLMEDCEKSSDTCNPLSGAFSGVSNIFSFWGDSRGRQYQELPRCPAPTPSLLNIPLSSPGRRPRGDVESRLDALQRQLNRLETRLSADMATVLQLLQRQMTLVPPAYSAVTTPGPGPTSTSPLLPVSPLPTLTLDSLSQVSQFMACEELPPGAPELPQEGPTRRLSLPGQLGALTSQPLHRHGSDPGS

Going from `CC1=C(C(=O)Nc2cccnc2)C(c2ccc3c(c2)OCO3)C2=C(CCCC2=O)N1` (centres unmarked) to `Cc1cc(Br)ccc1OCc1nc(-c2cccnc2)no1`, the “hERG current change (%, negative = inhibition) at 10uM” value falls from 26% to 14.4%.

Compared with `Cc1cccc(C)c1NC(=O)CS(=O)CC(=O)Nc1ccc(N2CCOCC2)cc1` (centres unmarked), `NC(=O)c1ccc(-n2nnnc2SCC(=O)Nc2ccc(N3CCOCC3)c(Cl)c2)cc1` is lower in “hERG current change (%, negative = inhibition) at 10uM” value: 15.3% for the first, 1.33% for the second.

Compared with `Cc1ccc(-n2c(=O)[nH]c3c(oc4ccccc43)c2=O)cc1`, `O=C1C2C3C=CC(C3)C2C(=O)N1c1ccc(-c2nc3ccccc3c(=O)o2)cc1` (centres unmarked) is higher in “hERG current change (%, negative = inhibition) at 10uM” value: -0.961% for the first, 19.6% for the second.

Going from `CC(=O)Nc1cccc(OCC(=O)NC(C)C(C)C)c1` (centres unmarked) to `Cc1ccccc1OCC(=O)Nc1ccc(N2CCN(C(=O)C(C)C)CC2)c(Cl)c1`, the “hERG current change (%, negative = inhibition) at 10uM” value falls from 9.05% to -31.2%.

Compared with `N#Cc1ccc(Cn2c(=O)c(C#N)c3n(c2=O)CCC3)cc1`, `Cc1noc(/C=C/N(C)C)c1S(=O)(=O)N1CCCC(C(=O)NCc2ccc(Cl)cc2)C1` (centres unmarked) is higher in “hERG current change (%, negative = inhibition) at 10uM” value: -37.7% for the first, 1.22% for the second.

First: Cc1cccc(-n2cc[nH]c2=S)c1
Second: CCCNC(=O)c1ccc2c(c1)nc(C)n2-c1cccc(C)c1
The “hERG current change (%, negative = inhibition) at 10uM” value of the first is higher: 22.9% for the first, -34.8% for the second.

Going from `O=c1[nH]cnc2c1nnn2Cc1ccccc1` to `O=c1onc(-c2cccs2)n1Cc1ccccc1`, the “hERG current change (%, negative = inhibition) at 10uM” value falls from 17.2% to -2.74%.

Going from `O=C(CCn1c(=S)oc2ccccc21)N1CCCCC1` to `O=C1/C(=C/c2ccccc2)SC(=S)N1CCCC(=O)N1CCCCC1CCO` (centres unmarked), the “hERG current change (%, negative = inhibition) at 10uM” value rises from -7.1% to -1.99%.

First: Cl.NCC(CC(=O)O)c1ccc(Cl)cc1 (centres unmarked)
Second: CCOP(=O)(OCC)C(Nc1ccc([N+](=O)[O-])cc1)c1ccc(Cl)cc1 (centres unmarked)
The “hERG current change (%, negative = inhibition) at 10uM” value of the first is higher: 3.99% for the first, -76% for the second.

First: COc1ccc(C2=NN(C(=O)CSc3ncccn3)C(c3cccc(OC)c3OC)C2)cc1 (centres unmarked)
Second: COc1cc(C(=O)N2CCN(CC(O)COc3ccccc3)CC2)cc(OC)c1OC (centres unmarked)
The “hERG current change (%, negative = inhibition) at 10uM” value of the first is lower: -8.82% for the first, 4.32% for the second.

Going from `Cc1cc(NC(=O)COC(=O)c2ccccc2S(=O)(=O)N(C)c2ccccc2)no1` to `O=C(COC(=O)c1cccc(S(=O)(=O)NCc2ccccc2)c1)NCC1CCCO1` (centres unmarked), the “hERG current change (%, negative = inhibition) at 10uM” value rises from -12.6% to 3.36%.

First: CCC(C)NC(=O)C(Cc1ccccc1)NS(=O)(=O)c1ccc2c(c1)CCC(=O)N2 (centres unmarked)
Second: COc1ccc2[nH]c3c(c2c1)CCN1C(=O)N([C@@H](C)C(=O)NCc2ccccc2)C(=O)[C@]31C
The “hERG current change (%, negative = inhibition) at 10uM” value of the first is higher: 20.8% for the first, 2.42% for the second.

Compared with `COc1ccc(N2C3=C(C(=O)CC(C)(C)C3)C(c3cnn(C)c3)C3=C2CC(C)(C)CC3=O)cc1`, `COc1ccc(CCN2CC(C(=O)N(C)Cc3ccc(C)o3)CCC2=O)cc1` (centres unmarked) is lower in “hERG current change (%, negative = inhibition) at 10uM” value: 2.73% for the first, -6.77% for the second.

Going from `Cc1nnc(SCC(=O)Nc2cccc(S(=O)(=O)NC3=NCCCCC3)c2)n1Cc1ccccc1` to `COC(=O)c1ccccc1NC(=O)CSc1nnc(C(CO)NC(=O)c2ccccc2Cl)n1C` (centres unmarked), the “hERG current change (%, negative = inhibition) at 10uM” value falls from 16.7% to 12.9%.

First: Cc1ccccc1OCC(=O)NCCN(C)C
Second: CCc1ccc(OCC(=O)NCc2ccco2)c(Br)c1
The “hERG current change (%, negative = inhibition) at 10uM” value of the first is higher: -1.74% for the first, -2.74% for the second.

Compared with `O=C(CSc1nnc2scc(-c3ccccc3)n12)Nc1nsc(-c2ccc(Cl)cc2)n1`, `CC(=O)Nc1ccc(NC(=O)c2cc(-c3ccccc3)nc3ccccc23)cc1` is higher in “hERG current change (%, negative = inhibition) at 10uM” value: -3.5% for the first, 17.1% for the second.

Compared with `CNc1nc(SCC(=O)Nc2ccccc2)nc(N2CCOCC2)n1`, `CCN=C1SC(CC(=O)Nc2ccccc2)C(=O)N1CC` (centres unmarked) is lower in “hERG current change (%, negative = inhibition) at 10uM” value: 21.9% for the first, -19.8% for the second.

First: COc1cc(NC(=O)c2ccc3snnc3c2)cc(OC)c1
Second: COc1cc2nc(N(CCN(C)C)C(=O)c3ccc4ccccc4c3)sc2cc1OC.Cl
The “hERG current change (%, negative = inhibition) at 10uM” value of the first is higher: 13.5% for the first, -40.8% for the second.

Going from `Cc1cc(=O)n(C)c(=O)n1CCCCOc1cccc([N+](=O)[O-])c1` to `CC(C)Nc1ccc(C(CC(N)=O)NC(=O)Cc2cccc3ccccc23)cc1[N+](=O)[O-]` (centres unmarked), the “hERG current change (%, negative = inhibition) at 10uM” value rises from -14.5% to -2.02%.

Compared with `CCCCCCCCCCCCN1[C@@H](CC(=O)OC)c2cc(C(F)(F)F)ccc2S1(=O)=O`, `CCC(=O)N/C=C/n1cnc2cc(C(F)(F)F)ccc21` is higher in “hERG current change (%, negative = inhibition) at 10uM” value: -16.2% for the first, -15.1% for the second.

First: CC(NCC(O)COCc1cccs1)C1CC2CCC1C2 (centres unmarked)
Second: CC1CCc2c(sc(NC(=O)/C=C/c3cccs3)c2C(=O)O)C1 (centres unmarked)
The “hERG current change (%, negative = inhibition) at 10uM” value of the first is lower: -8.05% for the first, 34.3% for the second.

Compared with `O=C(CN1CCN(CC(=O)Nc2ccccc2Cl)CC1)NCC1(N2CCCCC2)CCCCC1`, `O=C(NNC(=S)NC1CCCCC1)c1cccc(S(=O)(=O)Nc2ccccc2Cl)c1` is higher in “hERG current change (%, negative = inhibition) at 10uM” value: -39.7% for the first, 13.1% for the second.

First: CN(CC(=O)N(CCO)Cc1ccccc1)S(=O)(=O)c1ccc2c(c1)c(=O)n(C)c(=O)n2C
Second: CN(C)c1ccc(-n2cc3c(=O)n(C)c(=O)n(C)c3c2)cc1
The “hERG current change (%, negative = inhibition) at 10uM” value of the first is lower: -16.8% for the first, -1.19% for the second.

Compared with `COc1ccc(C(=O)NCC(=O)N/N=C(C)\C=C\c2ccccc2)cc1OC`, `COc1cc(/C=C/C(=O)OCC(=O)N2c3ccccc3CC2C)cc(OC)c1OC` (centres unmarked) is lower in “hERG current change (%, negative = inhibition) at 10uM” value: -19.3% for the first, -19.4% for the second.

Going from `O=C(O)c1ccc(Cn2ccc3ccccc32)o1` to `O=C(NCCc1cn2ccccc2n1)c1ccc(Br)o1`, the “hERG current change (%, negative = inhibition) at 10uM” value falls from 8.09% to -28.9%.

Going from `COc1ccc(CN2CCNC(=O)C2CC(=O)NC2CCCC2)cc1OC` (centres unmarked) to `O=C(CCC(=O)OCC(=O)c1ccc([N+](=O)[O-])cc1)NC1CCCCC1`, the “hERG current change (%, negative = inhibition) at 10uM” value falls from 6.22% to -0.724%.

Compared with `CC(Sc1ccccc1)C(=O)N1CCN(S(=O)(=O)c2cccc(Br)c2)CC1` (centres unmarked), `O=C(OCC(=O)N1CCN(c2cccc(Cl)c2)CC1)c1ccco1` is lower in “hERG current change (%, negative = inhibition) at 10uM” value: -11.9% for the first, -12% for the second.

Compared with `CCOC(=O)CC(=O)CSC1=C(C#N)C(c2ccccc2OC)CC(=O)N1` (centres unmarked), `Cc1cccc(C)c1OCC(=O)OC/C(O)=C(\C#N)c1nc2ccccc2[nH]1` is higher in “hERG current change (%, negative = inhibition) at 10uM” value: -35.1% for the first, 12.6% for the second.

First: Cc1ccc(CN(C(=O)c2cc3ccccc3oc2=O)C2CCS(=O)(=O)C2)cc1 (centres unmarked)
Second: CN(C)C(=O)c1ccc(N/C=C(\C=O)c2nc3ccccc3o2)cc1
The “hERG current change (%, negative = inhibition) at 10uM” value of the first is lower: -34% for the first, -17.8% for the second.

First: Cc1cccc(N2CCN(C(=O)c3cc4cc(F)ccc4[nH]3)CC2)c1C
Second: O=C(COc1ccc2ccc(=O)oc2c1)N1CCN(c2ccc(F)cc2)CC1
The “hERG current change (%, negative = inhibition) at 10uM” value of the first is higher: 8.46% for the first, -31% for the second.

First: Cc1ccc(-c2c(C(=O)N/N=C/c3ccsc3)nnn2-c2nonc2N)cc1
Second: Cc1cc(SCC(=O)N/N=C/c2ccc(O)cc2O)nc2ccccc12
The “hERG current change (%, negative = inhibition) at 10uM” value of the first is lower: 8.75% for the first, 9.64% for the second.

Going from `O=C(c1cc(-c2ccccc2)nc2ccccc12)N1CCCc2ccccc21` to `CCN(CC)C(=O)c1ccc2nc(-c3ccccc3)c(-c3ccccc3)nc2c1`, the “hERG current change (%, negative = inhibition) at 10uM” value falls from 0.0991% to -2.32%.

Compared with `CCCc1cc(=O)n2[nH]c(NCc3c(F)cccc3Cl)nc2n1`, `CCn1c(O)c(C=NCCc2c[nH]c3ccccc23)c(=O)[nH]c1=O` is higher in “hERG current change (%, negative = inhibition) at 10uM” value: 15.4% for the first, 21.6% for the second.

First: O=c1nc2n(c3ccc(Br)cc13)CCS2
Second: COc1cc(C)nc(Oc2ccc(=O)[nH]n2)n1
The “hERG current change (%, negative = inhibition) at 10uM” value of the first is lower: -13.2% for the first, -9.95% for the second.

Compared with `Cc1cc(C(=O)COC(=O)c2n[nH]c(=O)c3ccccc23)c(C)n1C(C)C`, `COc1ccccc1NS(=O)(=O)c1cc(NC(=O)CNC(=O)c2ccc(C)s2)ccc1Cl` is higher in “hERG current change (%, negative = inhibition) at 10uM” value: -9.38% for the first, -6.01% for the second.

First: CCCCc1cc(=O)oc2c(C)c(OCC(=O)NCC3CCC(C(=O)O)CC3)ccc12 (centres unmarked)
Second: Cc1ccc(C)c(NC(=S)N(Cc2cccc(Br)c2)CC2CCC(C(=O)O)CC2)c1 (centres unmarked)
The “hERG current change (%, negative = inhibition) at 10uM” value of the first is lower: -1.74% for the first, 2.11% for the second.

Compared with `O=C(O)COc1ccccc1C1C2C(=O)N(c3ccc(F)cc3)C(=O)C2ON1c1ccccc1` (centres unmarked), `O=C(NNC1CC(=O)N(c2ccccc2)C1=O)c1ccco1` (centres unmarked) is higher in “hERG current change (%, negative = inhibition) at 10uM” value: -5.93% for the first, 15.1% for the second.

First: CN(C(=O)Cn1cc(C#N)c2ccccc21)c1ccccc1
Second: Cc1cc(/C=N/n2c(COc3ccccc3)nc3ccccc3c2=O)c(O)c([N+](=O)[O-])c1
The “hERG current change (%, negative = inhibition) at 10uM” value of the first is higher: -6.8% for the first, -14.6% for the second.

First: c1ccc(CCNc2ncnc3c2cnn3-c2ccccc2)cc1
Second: O=C(COC(=O)c1ccc(Br)o1)NCCc1ccccc1
The “hERG current change (%, negative = inhibition) at 10uM” value of the first is lower: -40.5% for the first, 4.67% for the second.

Going from `COC(=O)c1cc(-c2ccc(S(=O)(=O)N3CCCC(C)C3)cc2)c(C(F)(F)F)s1` (centres unmarked) to `Cc1ccc(S(=O)(=O)N=C2SCCCS2)cc1`, the “hERG current change (%, negative = inhibition) at 10uM” value rises from -7.11% to 4.41%.

Going from `Cc1nc(N2CCOCC2)[nH]c(=O)c1C` to `O=C(c1cc(-c2cccc(Cl)c2)on1)N1CCc2ccccc2C1`, the “hERG current change (%, negative = inhibition) at 10uM” value falls from 24.3% to 24.2%.

Compared with `CSc1ccc(CN(C)CC(=O)NC(=O)NCCC2=CCCCC2)cc1`, `COc1cc(/C=C/C(=O)N(C)CC(=O)Nc2ccccc2Br)cc2c1OCCO2` is higher in “hERG current change (%, negative = inhibition) at 10uM” value: -10% for the first, 0.127% for the second.

First: COc1ccc(C(C(N)=O)c2ncc(C(F)(F)F)cc2Cl)cc1 (centres unmarked)
Second: CCN(CCO)Cc1csc2cccc(Br)c12.Cl
The “hERG current change (%, negative = inhibition) at 10uM” value of the first is higher: 4.78% for the first, -24.6% for the second.
